Laboratory results: PubChem BioAssay (NCATS)
“And” between values parts separate entries of the source, which are not always exact repeats. Equal values may be shown once. Some of the results follow. Further columns of the screen follow, without active or inactive calls. The list favours compounds with an active or inconclusive main result.

Assay: qHTS Assay for Lipid Storage Modulators (AID 1519)
Details: Drosophila S3 cells, BODIPY lipid droplet/cell ratio, laser cytometry; measured here: lipid channel max response; cells loaded with oleic acid
Procedure, shortened: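 Cells seeded at 5,000 per well were treated with compounds over a concentration series and loaded with oleic acid (400 uM, as added). Lipid droplet fluorescence (488 nm excitation, 500-530 nm channel) was read by laser-scanning cytometry and normalized to 20 uM Triacsin C.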

Structure (SMILES)	max response
CCNc1ncc2nc(-c3cn(C)c4ccccc34)c(=O)n(Cc3ccc(F)cc3)c2n1	35.9%
N#Cc1cccc(-c2cncnc2NCCc2cnc[nH]2)c1	68.1%
COc1cccc(-c2nc(N(C)C)c3ccccc3n2)c1	53.1%
COc1ccc2[nH]cc(CCNc3cc(-c4ccccc4Cl)ncn3)c2c1	34.1%
COc1ccc(-c2nc(C(=O)N3CCN(C)CC3)sc2-c2ccc(OC)cc2)cc1	107%
CN(Cc1ccco1)c1ncncc1-c1ccc2c(c1)OCO2	54.7%
O=c1c(-c2cc(F)cc(F)c2)nc2cnc(N3CCNCC3)nc2n1Cc1ccc(F)cc1	-99.8%
CN1C(=O)CCC1c1cccnc1 (stereo not given)	69% and 69.1%
CN(C)c1ccc(-c2nc(-n3ccnc3)c3ccccc3n2)cc1	8.35%
CCOc1ccc(/C=C/C(=O)c2cccs2)cc1	92.7%
CC(=O)c1ccc[nH]1	15.3%
COCCn1c(=O)c(-c2cc(F)cc(F)c2)nc2cncnc21	40.7%
C[N+](C)(C)CCOC(=O)CCC(=O)OCC[N+](C)(C)C	-10.8%
COc1ccc(CNc2ncncc2-c2ccccc2C)c(OC)c1	19.6%
Cn1cnc2c(NCc3ccccc3)nc(NCCO)nc21	111%
O=S(=O)(c1ccccc1)N1CCC2(CCN(c3ncccn3)CC2)CC1	34.5%
COc1ccc(Oc2ncc3ncc(=O)n(CCc4ccccc4)c3n2)cc1	27.8%
c1ccc2c(N3CCOCC3)nc(-c3ccoc3)nc2c1	35.2%
COc1ccc(-n2c(=O)c(-c3ccc(F)cc3)nc3cnc(OC)nc32)cc1	24.7%
CN(C)C1C(=O)C(C(N)=O)=C(O)[C@@]2(O)C(=O)C3=C(O)c4c(O)ccc(Cl)c4[C@@H](O)C3C[C@@H]12 (stereo not given in full)	-72.6%

Structure (SMILES)	max response
CCn1ccnc1C[C@@H]1COc2ccccc2O1	49.1%
Cc1cc(NC(=O)C2=C(O)c3ccccc3S(=O)(=O)N2C)no1	54.3%
COc1cccc(Cn2c(=O)c(CCc3ccccc3)nc3cnc(N4CCOCC4)nc32)c1	55.6%
O=C(Cc1ccc(Cl)cc1)c1c(O)cc(O)cc1O	79.8%
CC(C)=CCC/C(C)=C\COc1c2ccoc2cc2oc(=O)ccc12	114%
COc1ccccc1CNc1ccnc(-c2cccc(NS(C)(=O)=O)c2)n1	14.2%
COc1ccc(C2CNC(=O)C2)cc1OC1CCCC1 (stereo not given)	71.7%
O=c1cc(-c2ccccc2O)oc2ccc3ccccc3c12	102%
COc1ccc(-n2c(=O)c(C)nc3cnc(N4CCOCC4)nc32)cc1	38.8%
COc1ccc(-n2c(=O)c(C)nc3cnc(Nc4cccc(OC)c4)nc32)cc1	20.3%
O=C(O)COc1cccc(-c2ocnc2-c2nc(-c3ccccc3)c(-c3ccccc3)o2)c1	125%
C#CCCCCCCCCCCCCCCCC(=O)O	82.7%
COc1cccc(Cn2c(=O)c(-c3cccc(C#N)c3)nc3cnc(Nc4ccccc4)nc32)c1	0.352%
CC(C)=CCc1c2c(c3occ(-c4ccc(O)cc4)c(=O)c3c1O)C=CC(C)(C)O2	-80.3%
COc1ccc(Oc2ncc3ncc(=O)n(CCC#N)c3n2)cc1	33.3%
Fc1ccc(Nc2ccnc(-c3ccccc3C(F)(F)F)n2)cc1	28%
COc1ccccc1CNc1cc(-c2ccccc2OC)ncn1	-1.29%
Cc1nc2cncnc2n(Cc2ccccc2Cl)c1=O	31.2%
CN1CCN(c2nc(-c3cccnc3)nc3ccccc23)CC1	16.2%
O=S(=O)(c1ccccc1)N1CCC[C@@]2(CCN(Cc3ccccc3)C2)C1	22.8%
